From patent US20090252749A1 (published 2009) come the findings set out here.

Assay [1] has as its target T1, B7-1Ig (UniProt P33681 35-242, limits assumed).
T1 construct: Immobilised by amine coupling on a CM5 sensor chip; also called B7Ig; CD80-Ig; not shown: immunoglobulin portion of the fusion
T1 sequence (looked up): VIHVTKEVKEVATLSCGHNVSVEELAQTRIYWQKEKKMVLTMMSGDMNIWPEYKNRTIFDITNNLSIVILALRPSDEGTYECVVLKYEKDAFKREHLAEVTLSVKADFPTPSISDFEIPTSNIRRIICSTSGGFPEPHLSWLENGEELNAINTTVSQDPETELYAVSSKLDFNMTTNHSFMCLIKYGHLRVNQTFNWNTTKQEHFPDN
Nature of the assay: SPR (Biacore) kinetics; low-density B7-1Ig chip (694 RU); samples 75-200 nM. The protocol: In Table 11, sample concentrations of 75-200 nM were tested on B7-1Ig chip (694 RU).
For orientation: Surface plasmon resonance follows binding to a sensor surface in real time, without labels.

For assay [2], the target named is T1, B7-1Ig. Description: SPR (Biacore), mass transfer limited, high-density B7-1Ig chip. From the text:
The invention provides methods for evaluation of CTLA4-Ig dimer and tetramer binding to B7-1Ig. Physical characteristics (e.g. diffusion coefficient, molecular weight, binding valency) and instrument operational parameters (e.g. flow rate, chip density) can influence the Biacore assay results. Under mass transfer limitation; the binding rate of tetramer is approximately 20% slower than dimer for the same molar concentration. At a specified flow rate, it is possible that tetramer molecules penetrated the matrix less efficiently compared to the dimer. […] Molar concentrations of tetramer can be calculated based on a dimer standard curve.
Binding of CTLA4-Ig dimer and tetramer to B7-1Ig using surface plasmon resonance: Concentration Analyses: Concentration analyses of the various CTLA4-Ig species to B7-1Ig were performed on a Biacore 3000 instrument (Biacore, Piscataway, N.J.) according to Method 7441-4² with minor modifications. […]
A CM5 sensor chip was immobilized with B7-1Ig at a concentration of 20 μg/mL in acetate buffer, pH 5.0, aiming for a target density of 6000-12000 resonance unit (RU). […] Test samples, consisting of either monomer or dimer, were diluted to a target concentration of −2000 ng/mL and analyzed on the Biacore. Concentrations were determined by the BIAevaluation software (version 4.0.1) using standard curves of either CTLA4-Ig material (>98% monomer) or purified dimer.

B1: Protein A eluate of the CTLA4-Ig HIC cleaning peak (Fc fusion)
chain: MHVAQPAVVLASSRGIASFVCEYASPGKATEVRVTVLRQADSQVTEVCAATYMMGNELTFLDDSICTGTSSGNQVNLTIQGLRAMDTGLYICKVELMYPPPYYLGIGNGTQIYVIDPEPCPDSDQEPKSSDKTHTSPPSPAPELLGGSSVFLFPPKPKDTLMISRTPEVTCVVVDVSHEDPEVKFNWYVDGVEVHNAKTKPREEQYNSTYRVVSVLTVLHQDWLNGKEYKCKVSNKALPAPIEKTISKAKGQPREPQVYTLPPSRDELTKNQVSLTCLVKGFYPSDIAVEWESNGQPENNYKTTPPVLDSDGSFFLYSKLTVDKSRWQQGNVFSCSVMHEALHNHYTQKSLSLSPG
modifications: glycosylated
notes: A mixture of all CTLA4-Ig species (dimer, tetramer, hexamer, multimer), so no single copy number applies
As for B1, in assay [1], the koff worked out at 0.00973 s⁻¹ and the kon turned out to be 377000 M⁻¹ s⁻¹.

B2: CTLA4-Ig tetramer (Fc fusion)
chain: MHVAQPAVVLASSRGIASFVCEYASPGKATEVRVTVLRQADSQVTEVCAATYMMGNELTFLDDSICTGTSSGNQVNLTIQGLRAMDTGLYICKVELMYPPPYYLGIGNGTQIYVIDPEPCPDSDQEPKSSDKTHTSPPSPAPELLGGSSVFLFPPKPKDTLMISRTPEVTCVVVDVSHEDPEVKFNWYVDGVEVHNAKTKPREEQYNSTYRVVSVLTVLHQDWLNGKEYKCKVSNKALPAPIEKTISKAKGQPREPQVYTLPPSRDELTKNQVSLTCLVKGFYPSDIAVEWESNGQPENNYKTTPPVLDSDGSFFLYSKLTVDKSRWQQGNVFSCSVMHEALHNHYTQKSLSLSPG
modifications: glycosylated; less sialylated than the dimer
notes: Two covalent dimers associated non-covalently; Purified from the HIC cleaning peak by Protein A chromatography and preparative SEC; also called purified tetramer
Regarding B2, the “initial binding rate relative to CTLA4-Ig dimer” value in assay [2] is about 0.8 fold.

What is called koff is the rate constant with which the complex falls apart. The term kon denotes the second-order rate constant of association. A high value points to fast association.
